Values joined by “and” are separate entries in the source; they are usually repeats but may differ in a detail not shown here. Identical values can stand only once. Hit rate of the full screen: of about 150,000 compounds, about 540 (0.36%) showed an effect of 50% or more. This is one part of the list.
System: Plasmodium falciparum
Test: Primary screen in NF54 nanoGlo assay, in single point, at 2uM, 72h; a lower Z score goes with more inhibition
Assay type: functional, Erythrocyte
Conditions: timepoint 72 hour

| SMILES | % Inhibition | Z score | % Inhibition (2 µM) |
| --- | --- | --- | --- |
| COCCOCc1nc([C@@H]2CCCCN2C(=O)Nc2ccc(F)cc2F)no1 | -10% | 1.27 | – |
| O=C(NCc1ccc2c(c1)OCO2)c1cc(-c2ccccc2)nc2ccccc12 | -5% | 0.71 | – |
| Cc1ccoc1C(=O)N(C)c1nc2ccccc2o1 | 0% | -0.06 | – |
| COc1ccc(-c2c(-c3cccc(OC)c3)[nH]c3[nH]c(=O)[nH]c(=O)c23)cc1 | -5% | 0.84 | – |
| CCc1ccc(C(=O)N[C@@H](CC(C)C)c2cccnc2)[nH]1 | 13% | -1.71 | – |
| CCC1C2C(=O)N(c3ccc(Br)cc3)C(=O)C2C(C(N)=O)N1C (centres undefined) | -41% | 4.85 | – |
| O=C(NCCc1ccccc1OC(F)F)N1CCOC[C@H]1C1CC1 | 4% | -0.49 | – |
| CC(C)c1cc(C(=O)N2CCCCC(C)(C)C2)no1 | -3% | 0.35 | – |
| Cn1nccc1-c1ccc(CNC(=O)[C@H]2CCOC2)cn1 | -1% | 0.08 | – |
| Cc1cc(CCNC(=O)N2CC3CC4CC3C2C4O)cc(C)c1O (centres undefined) | -6% | 0.93 | – |
| CN(CCC(=O)O)c1ccnc(C2CC2)n1 | -50% | 5.86 | – |
| CC1(C2CCN(C(=O)c3cn(Cc4ccccc4)nc3-c3ccccc3)CC2)OCCO1 | -12% | 1.61 | – |
| CCC(=O)N1CCN([C@H]2CCN(Cc3ccccc3)C2)CC1 | 2% | -0.31 | – |
| Cc1cc(C)c(CNC(=O)[C@H]2CC(=O)N(c3ccc(C)c(F)c3)C2)c(=O)[nH]1 | -12% | 1.78 | – |
| COCCO[C@H]1CCN(c2nnc(-c3ccc(C)o3)n2Cc2ccccc2)C1 | -12% | 1.54 | – |
| COc1cccc(CN2CCC(C)(C)S(=O)(=O)CC2)c1F | -10% | 1.54 | – |
| COC1(C)CC(NC(C(N)=O)c2ccccc2)C1(C)C (centres undefined) | 8% | -0.85 | – |
| NCCCc1ccc(Cl)c(Cl)c1 | -3% | 0.38 | – |
| CN(Cc1csnn1)[C@@H](C(N)=O)c1cccc(Br)c1 | -10% | 1.87 | – |
| CCN(CCN1CCCC1)C(=O)c1c(C)n[nH]c1C1CC1 | 1% | -0.07 | – |
| CN(CCCC(=O)NC[C@H]1c2ccccc2C(=O)N1C)C(=O)c1ccncc1 | -14% | 1.53 | – |
| COc1nc2c(c(C)nn2-c2cccc(F)c2)c(C)c1CCC(=O)N1CCCC1 | -11% | 1.56 | – |

| SMILES | % Inhibition | Z score | % Inhibition (2 µM) |
| --- | --- | --- | --- |
| Cc1nc(N[C@@H](C)Cn2cccn2)cc(C(C)C)n1 | 7% | -1.31 | – |
| Cn1cc(-c2noc(/C=C/c3cccc(Cl)c3)n2)ccc1=O | -1% | 0.14 | – |
| CN(C)c1ncncc1NC(=O)c1ccc(F)c(F)c1 | -8% | 0.82 | – |
| Cc1c[nH]c(-c2c(-c3ccccc3)ncn2[C@H](CO)c2ccccc2)n1 | -9% | 1.21 | – |
| O=C(c1ccc(F)cc1Cl)N1CC[C@H](c2cccs2)C1 | 2% | -0.47 | – |
| Cc1nn(C)c2nc(-c3cccs3)cc(C(=O)N3CCCC[C@@H]3C)c12 | 1% | -0.19 | – |
| CCCCC1CCCC1NC(=O)CCc1c(C)noc1C (centres undefined) | 5% | -0.59 | – |
| CCCn1nnnc1CN(C)S(=O)(=O)CCC | -11% | 1.72 | – |
| Cc1ccc2c(c1)CCCN2C(=O)c1ccoc1 | 4% | -0.72 | – |
| Cc1csc(CN(C)c2ncccc2C(=O)N2CCCCC2)n1 | -9% | 0.73 | – |
| Cc1ccccc1NC(=O)Cn1ccnc1-c1cccc(Cl)c1 | -10% | 1.31 | – |
| Cc1c(N)ncn(Cc2ccc(Cl)cc2)c1=O | 5% | -0.58 | – |
| Cc1[nH]c(=O)c(C(=O)N(Cc2cnn(C)c2)C(C)C)c(C)c1Cl | -5% | 0.52 | – |
| CCn1nc(Cn2cncn2)nc1CN1CCOC1=O | -7% | 1.42 | – |
| CC1(C)Cc2cccc(NC(=O)N3CCC(O)(C4CCC4)CC3)c2O1 | -4% | 0.53 | – |
| O=C(Cn1ccc2ccccc21)N1CCN(c2cnsn2)CC1 | -11% | 1.41 | – |
| CCc1nc(C)c(C(=O)NC(C)(C)C(=O)OC)s1 | 1% | -0.15 | – |
| CC1CCC(C)(NC(=O)c2cc(S(N)(=O)=O)cn2C)CC1 (centres undefined) | -15% | 2.43 | – |
| C[C@@H](C(=O)NC1(C#N)CCCCC1)N1CCN(c2nccs2)CC1 | -9% | 1.54 | – |
| CC[C@@]1(C(=O)Nc2cccc(COC(C)C)c2)CCCN1 | -10% | 1.09 | – |
| COc1cccc(CN2C[C@]34C=C[C@H](O3)C(C(=O)N3CCC(F)CC3)C4C2=O)c1 (some centres undefined) | -6% | 1.19 | – |
| CO[C@@H](CN(C)Cc1cn2c(n1)CCCC2)c1ccccc1 | -12% | 2.1 | – |

| SMILES | % Inhibition | Z score | % Inhibition (2 µM) |
| --- | --- | --- | --- |
| Cn1cc([C@@H](OC(=O)c2scnc2C2CC2)C(F)(F)F)cn1 | -3% | 0.58 | – |
| Brc1ccc(CN[C@H](c2nccs2)C2CC2)o1 | 7% | -0.65 | – |
| Cc1cccc2ncnc(N3CCC([C@@H]4CCCN4)CC3)c12 | 5% | -0.9 | – |
| CN(C)c1ccc(CN[C@H]2C[C@H]3C(=O)NC[C@@H](CCC(=O)Nc4ccccc4)N3C2)cc1 | -10% | 1.33 | – |
| Cc1[nH]c2ccc(NC(=O)c3ccccc3F)cc2c1[C@@H](c1ccccn1)N1CCCCC1 | 3% | -0.5 | – |
| Cc1ncn(CCNC(=O)[C@]2(c3ccccc3F)CC2(C)C)c1C | -11% | 1.79 | – |
| CC(C)(C)c1ccc(OC[C@H]2CCCN2)nn1 | -3% | 0.35 | – |
| COc1ccc(CCNC(=O)c2cc3n(n2)[C@H](C(F)(F)F)C[C@H](c2ccco2)N3)cc1 | -12% | 1.6 | – |
| Cc1cc(C)cc(-n2nc(C)cc2NC(=O)C(=O)Nc2ccccc2)c1 | 0% | 0.04 | – |
| COc1ccc(NC(=O)c2cc(C#N)c3ccccn23)cc1 | 3% | -0.3 | – |
| COc1ccc(CN2Cc3cc(NC(=O)CC(C)(C)C)ccc3O[C@@H](C)C2=O)cc1 | -2% | 0.2 | – |
| Cc1cc(CN=C(N)Nc2ccc3c(c2)CCC3)no1 | -4% | 0.56 | – |
| O=C1N[C@@](Cc2ccc(F)cc2)(C2CCN(Cc3c[nH]c4ccccc34)CC2)C(=O)N1C1CCCC1 | 7% | -1.39 | – |
| CC(=O)c1ccc(C(=O)N2CCC[C@@H]2CCC2CCCCC2)[nH]1 | -7% | 0.74 | – |
| CCS(=O)(=O)N1CCN(C2CCCC2)CC1 | – | – | 0% and 2% |
| CCN(CC)CCC[C@H](C)NC(=O)CCN(CCOC)C(=O)c1cnc(C)cn1 | 1% | -0.11 | – |
| O=C(c1cc(Br)cn2ncnc12)N1CC(n2ccnn2)C1 | -10% | 1.31 | – |
| CCC(C(=O)N1CC2C3CCC(O3)C2C1)c1ccccc1 (centres undefined) | -3% | 0.46 | – |
| FC(F)Cn1cc(CN2CCOCc3ccccc32)cn1 | -5% | 0.66 | – |
| O=C(CN1CCN(S(=O)(=O)c2cccc(Br)c2)CC1)NC1CCCCCC1 | -6% | 0.72 | – |
| O=C1N[C@]2(CCc3ccccc3C2)C(=O)N1CN1CCN(c2ccccc2F)CC1 | -4% | 0.49 | – |
| COCc1nc(CN2CCCC2)n(Cc2ccc(F)cc2)n1 | -3% | 0.31 | – |

| SMILES | % Inhibition | Z score | % Inhibition (2 µM) |
| --- | --- | --- | --- |
| c1ccc2cc(-c3nnc([C@H]4CC45CCOCC5)o3)ccc2c1 | -11% | 2.09 | – |
| CC[C@H](Nc1nnnn1-c1ccccc1)C(=O)Nc1cnn(CC)c1 | 5% | -0.86 | – |
| c1c[nH]c([C@H]2CCCN(c3ncnc4c3CCC4)C2)n1 | -3% | 0.42 | – |
| CCC1OCCCC1C(=O)N[C@H]1C[C@@H](O)C1 (some centres undefined) | -19% | 2.69 | – |
| NS(=O)(=O)C1CCN(C(=O)NC[C@H]2C[C@@H]2c2ccccc2)C1 (some centres undefined) | -8% | 1 | – |
| COc1ccc(N2CCN(C(=O)c3cc4occc4c(Nc4ccc(C)c(Cl)c4)n3)CC2)cc1 | -12% | 1.22 | – |
| c1nc([C@H]2CCCNC2)cc(N(Cc2ccc3c(c2)OCO3)C2CC2)n1 | 7% | -0.89 | – |
| CCN1C(=O)Cc2cc(NS(=O)(=O)Cc3ccccc3Cl)ccc21 | -10% | 1.43 | – |
| C[C@H](NC(=O)c1ccc(OC(F)F)cn1)[C@H]1COC(C)(C)O1 | -1% | 0.18 | – |
| Cc1ccccc1C[C@@]1(C2CCN(C(=O)C3(C)CCCCC3)CC2)NC(=O)N(CCCN(C)C)C1=O | -1% | 0.09 | – |
| O=C(NC1CCCCCC1)[C@@H]1CC=CCC1 | -9% | 1.7 | – |
| COCC(=O)N(CC(=O)Nc1ccc(N2CCN(C(=O)NC(C)(C)C)CC2)cc1)Cc1ccc(F)cc1 | -14% | 1.61 | – |
| CC1(C)C[C@@H](O)CCN(c2ncc(F)c(NCC(F)F)n2)C1 | -15% | 1.89 | – |
| Cc1ccccc1NC(=O)CN1CC(=O)N(CC(=O)Nc2ccccc2C)CC1=O | 12% | -1.61 | – |
| CC1CN(C(=O)CN2C(=O)COc3ccc(Cl)cc32)CC(C)O1 (centres undefined) | -5% | 0.43 | – |
| CC(C)Cc1ccc(CN2CCN(c3ccc4[nH]ncc4c3)C(=O)C2)cc1 | -1% | 0.07 | – |
| CCn1cc(Cn2cc(C[C@H](O)C(C)(C)C)nn2)nn1 | -3% | 0.55 | – |
| Cn1ccnc1CN1CCN2C(=O)N(c3ccccc3)C(=O)[C@@H]2C1 | 8% | -1.36 | – |
| CCc1ccccc1NC(=O)CN1CCN(C(=O)c2ccc(O)nc2)CC1 | 7% | -0.59 | – |

— ChEMBL document CHEMBL4888484, “Replenishing the malaria drug discovery pipeline: Screening and hit evaluation of the MMV Hit Generation Library 1 (HGL1) against asexual blood stage Plasmodium falciparum ,using a nano luciferase reporter read-out” (2022)
